Laboratory results reported in the supplement of paper PMC10126150.
Sequences with one replicate were seen in a single cluster, so their values are uncertain.

Tested on: ATP
Test: switch fluorescence ratio, 500 uM ATP over buffer (Cy3 cluster intensity, sum of 5 cycles each) (fold (ratio)); higher = stronger signal-on switching upon ATP binding; sequences stand for … in TCGTCGGCAGCGTCAGATGTGTATAAGAGACAGTTTTTTTTTTTTTTTTTTTTTTTTT…TC
Conditions: aptamer strand: ATP DNA aptamer (quencher-CACCTGGGGGAGTATTGCGGAGGAAGG + anchor), 100 nM annealed; ATP concentration: 500 uM; one replicate
Procedure, shortened: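 Cy3-labelled switching-strand clusters on a modified Illumina MiSeq flow-cell were annealed to 100 nM quencher-labelled ATP aptamer, imaged in selection buffer, then imaged after 15 min with 500 uM ATP at 22 °C. Five buffer/ATP cycles ran, with NaOH stripping and re-annealing between them. The fluorescence ratio is summed target-cycle over summed buffer-cycle Cy3 intensity per cluster, averaged per switch-domain sequence. Clusters outside 100-1000 RFU were excluded.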
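Note: ATP exposure 15 min at 22 °C before imaging.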

Sequence | switch fluorescence ratio
GCTTGAGGAT | 1.03
CGGTGGTAAC | 0.993
TAGTTAAGAA | 0.981
GGGTCATTAG | 0.988
GTTGTAGGCT | 1
CCCTGTGTAT | 1.09
CACTACCGCC | 1.22
ATTCCATTA | 1.03
TATGGTGGC | 0.983
GAAGACGTGG | 1.03
AATTCAAACT | 0.982
CTTGGGCTGT | 1
GGATCACAGG | 1.08
TCATTTGTCT | 0.979
AAGCCCGACT | 1.02
CTAGGAGTGC | 0.792
CACCACGTAG | 1.04
TCGTATCCA | 0.99
TTCTCAGCAG | 1.93
GATGTGAGTG | 0.977
AAAATCCAAG | 1.03
AAAAACTAGG | 1.01
CTAGGGTTTT | 0.998
CGCATTCTCG | 2.55
ACCATTTTCC | 1.24

Sequence | switch fluorescence ratio
TACCTTTTGT | 1
ACATGGATTA | 1.02
GAATTAGGGT | 1.03
GGGATCTGG | 1.01
GCTGAATAGT | 1.01
CTGCTTGAGT | 1.01
TTGACATCGG | 1
TAAGCTTCTA | 1.03
ACTAAGAGTG | 0.98
GGCTTGTGTG | 0.955
ATGCCAAAGT | 1.02
AAAAGCCCGC | 1.12
AGTAAGTTT | 1.07
TTCGAGTCAG | 0.992
TCTAAATGTG | 1
GAGCCCGTCG | 1.1
TTATCTTAAA | 0.973
GTCGACACAA | 1.01
ATCGGCAGCG | 1.04
ATGACTTCAG | 0.965
ATCTTAGAAA | 0.895
CGATAAGGAA | 1.07
CGGTCTATAT | 1.03
ACCTCATATG | 1.01
GCAGGGTTTG | 1

Sequence | switch fluorescence ratio
CGTGACCGGC | 0.907
GGGTAACCGT | 0.965
TTTGCAAGG | 1.6
GGCATATTAG | 0.988
CAGGTATCCG | 1.05
CTGGACACAA | 1.33
GCGTTCTAGT | 0.997
TAGGCTATCG | 1.07
TGGGAGTCGT | 0.985
TTGCTTACTA | 1.03
ACGATACTTC | 1.44
GTCAACGGGG | 0.994
TGACACTCAC | 1.31
CCGCGAAAT | 3.35
GGAATCGCCT | 1.02
TCGGGCGGCC | 0.987
TATTAAGGAC | 1
CCTCGCCAGA | 2.06
TTCGCGTTC | 1.08
TGGGCACCTG | 1.04
CGGGTAAGGT | 0.988
CTGCGCATGA | 1.91
GACGGGCCCA | 0.993
GGCAGATTGG | 1.01
AAAACCTGCG | 1.22

Sequence | switch fluorescence ratio
ATATAGTCAT | 0.933
ACGTCTCAAC | 1.11
TAGAGCAAAC | 2.61
GATGTCTATT | 0.993
CGGTTAGCCG | 1.02
TTGCTACGGG | 1
AAATAAAC | 0.998
GTTTTTGATT | 1.04
CCGCGGTGGT | 1.14
AGGCACGAGC | 0.995
TGATAGTAGC | 1.03
TACGCGCGTT | 1.04
TCACAGAGTA | 0.991
TCCATTTCTA | 0.971
TGAGTATCAG | 0.984
TAACGCTTGA | 1.05
AGACCCCAGG | 1.07
TGGGCTCAC | 0.974
GGGTCCGTGT | 1.03
TCGAATTAGC | 1.05
GAATCGTGCC | 0.999
TGCCACTACC | 1.32
CGTTAAATCA | 1.02
ACTAGGGCAA | 0.982
GATGCTTAGG | 1.01
